Laboratory results taken from PubChem BioAssay AID485294 (National Center for Advancing Translational Sciences (NCATS), 2010).
The campaign covered roughly 370,000 compounds. About 150 (0.041%) were called active. The shares of active, inactive and inconclusive entries below differ from those in the screen. Calls come from the whole dose curve; as a rule, active = well fitted inhibition curve with a large enough effect; inconclusive = small, poorly fitted or top-dose-only effect; inactive = flat fitted curve, though single readings scatter. Potencies of inconclusive entries are left out as doubtful fits.

target: Beta-lactamase (Escherichia coli (strain K12)) (UniProt P00811); experiment: qHTS Inhibitors of AmpC Beta-Lactamase (assay with detergent); settings: AmpC hydrolysis of nitrocefin, absorbance 480 nm, 0.01% Triton; activity change, negative = inhibition: at 114 µM (top of the series); note: nearly all actives have a fitted effect of over 25% in size;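 for activity change, negative = inhibition: 0% = no-compound wells and -100% = no-enzyme wells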
In short: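 AmpC (5.3 nM in the dispensed reagent) in 20 mM phosphate pH 7.0 with 0.01% (detergent screen) or 0.0001% Triton X-100 was preincubated with compounds for 15 min at room temperature. Nitrocefin was then added from an 800 uM solution, and hydrolysis was followed at 480 nm.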
Potency is the fitted concentration of half-maximal effect; tags give direction and shape of the fitted curve.

Chain of UniProt P00811 (P00811 whole entry, looked up): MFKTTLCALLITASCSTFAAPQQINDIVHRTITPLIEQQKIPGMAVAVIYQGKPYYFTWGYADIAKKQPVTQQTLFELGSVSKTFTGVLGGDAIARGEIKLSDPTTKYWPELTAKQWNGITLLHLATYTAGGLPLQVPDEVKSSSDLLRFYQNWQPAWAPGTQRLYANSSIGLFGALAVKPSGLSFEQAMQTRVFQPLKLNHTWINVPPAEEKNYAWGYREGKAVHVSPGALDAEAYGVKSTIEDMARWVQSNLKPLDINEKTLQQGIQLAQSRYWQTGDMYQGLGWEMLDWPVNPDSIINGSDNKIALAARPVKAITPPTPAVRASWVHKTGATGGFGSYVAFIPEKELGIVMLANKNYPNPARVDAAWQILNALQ

Compound	Potency	activity change, negative = inhibition
Cn1c(SCC(=O)NC2CCCCC2)nnc1-c1cc2cc(Cl)ccc2o1	inconclusive [inhibitor, single point]	–
NS(=O)(=O)c1cccc(NC(=O)Nc2ccc(Cl)cc2)c1	–	inactive: -4.5%
CN(CC(=O)Nc1ccccc1Br)C(=O)c1ccc2c(=O)n3c(nc2c1)CCC3	inconclusive [inhibitor, single point]	–
CN(c1ccccc1)S(=O)(=O)c1ccc(C(=O)Nc2nccs2)cc1	inconclusive [inhibitor, partial curve]	–
O=C(Nc1ccccc1)C1=C[C@@H](c2ccc(Br)cc2)C[C@@H](OCCCCO)O1	–	inactive: 5.91%
OCCCN=c1cc(-c2ccccc2)oc2ccc(Cl)cc12	–	inactive: -10.8%
Cc1cc(NS(=O)(=O)c2ccc(NC(=O)/C=C/c3c(F)cccc3Cl)cc2)nc(C)n1	–	inactive: -0.572%
O=C(Nc1nc2ccccc2[nH]1)c1ccccc1OC(F)F	inconclusive [inhibitor, full curve, poor fit]	–
CC1CCN(S(=O)(=O)c2cc(C(=O)NCc3ccc(N(C)C)cc3)n(C)c2)CC1	–	inactive: -3.06%
O=c1c2ccccc2nc2n1CCCN2	inconclusive [inhibitor, single point]	–
N#CC1=C(N2CCOCC2)/C(=C\c2ccccc2)CC1	inconclusive [inhibitor, partial curve, poor fit]	–
C[C@]12CC[C@H](O)C[C@@H]1CC[C@@H]1[C@@H]2CC[C@]2(C)[C@@H](C(=O)O)C[C@@H]12	inconclusive [inhibitor, partial curve]	–
COc1cccc(-n2nnc3c(=O)n(C/C=C/c4ccccc4)cnc32)c1	inconclusive [inhibitor, full curve, poor fit]	–
CC1CCc2nn(CC(=O)Nc3ccc(F)cc3F)cc2C1 (stereo not given)	inconclusive [inhibitor, full curve]	–
CN1C(C(=O)Nc2ccccn2)=C(O)c2sc(Cl)cc2S1(=O)=O	inconclusive [inhibitor, full curve, poor fit]	–
CCCCn1c(SCC(=O)Nc2oc(C)c3c(C)n[nH]c(=O)c23)nc2cc(S(N)(=O)=O)ccc21	inconclusive [inhibitor, partial curve]	–
Cc1cc(C)c(C(=O)Nc2cccc(F)c2)c(Cl)n1	inconclusive [inhibitor, single point]	–
CCOC(=O)CCC(NC(=O)c1cncc(O)c1)C(=O)OCC (stereo not given)	inconclusive [inhibitor, full curve, poor fit]	–
Cc1ccc(N(C(=O)CNC(=O)c2ccco2)C(C(=O)NC2CCCC2)c2cccnc2)cc1 (stereo not given)	–	inactive: 1.33%
Cc1ccc(/C=C/S(=O)(=O)NCC(=O)OCC(=O)Nc2ccc(C(N)=O)cc2)cc1	inconclusive [inhibitor, full curve, poor fit]	–
CN(C(=O)COC(=O)c1ccccc1NCc1ccco1)c1c(N)n(Cc2ccccc2)c(=O)[nH]c1=O	inconclusive [inhibitor, full curve]	–
CCc1ccc(NC(=O)c2sc3nc(C)nc(N4CCN(c5ccccn5)CC4)c3c2C)cc1	inconclusive [inhibitor, full curve, poor fit]	–

Compound	Potency	activity change, negative = inhibition
CCC(Oc1ccccc1)C(=O)Nc1cc(Cl)ccc1-n1cncn1 (stereo not given)	inconclusive [inhibitor, full curve, poor fit]	–
CC12CC3CC(C)(C1)CC(N)(C3)C2	inconclusive [inhibitor, full curve, poor fit]	–
CCOc1ccc(N=Nc2c(=O)[nH]n3c(=O)c4c([nH]c23)CCCC4)cc1	inconclusive [inhibitor, full curve, poor fit]	–
S=C1NC2(CCCCC2)Cc2ccccc21	inconclusive [inhibitor, full curve, poor fit]	–
Cc1c(NC(=O)/C(=C/c2cccs2)c2cccs2)c(=O)n(-c2ccccc2)n1C	–	inactive: -3.08%
Cc1nc2c3cc(F)ccc3n(Cc3ccc(F)cc3)c2s1	inconclusive [inhibitor, partial curve, poor fit]	–
C=CCn1c(-c2ccccc2OC)n[nH]c1=S	inconclusive [inhibitor, full curve, poor fit]	–
COCCn1c(=NC(=O)/C=C/c2cccs2)sc2cc(NC(C)=O)ccc21	inconclusive [inhibitor, partial curve]	–
CCOC(=O)c1[nH]c2ccccc2c1N=CN(CC)CC	inconclusive [inhibitor, full curve, poor fit]	–
CCC(C)c1ccc(NC(=O)COc2c(F)c(F)c(C(F)(F)F)c(F)c2F)cc1 (stereo not given)	–	inactive: -0.0573%
C=CCOc1ccccc1CN(C(=O)CCl)c1ccc2c(c1)OCO2	inconclusive [inhibitor, partial curve]	–
COc1cccc(-c2nc(CS(=O)(=O)CC(=O)N3CCN(C4CCCCC4)CC3)c(C)o2)c1	inconclusive [inhibitor, full curve, poor fit]	–
CCC(=O)Nc1cccc(-c2ccc(N3CCN(C)CC3)nn2)c1	inconclusive [inhibitor, partial curve, poor fit]	–
CC(=O)c1ccc(-c2ccc(C(=O)N(C)c3c(N)n(Cc4ccccc4)c(=O)[nH]c3=O)o2)cc1	–	inactive: -18%
O=C(Nc1cccc(Br)c1)c1ccn[nH]1	–	inactive: 4.17%
O=C(COC(=O)c1cccc(S(=O)(=O)N2CCc3ccccc32)c1)Nc1ccc(Cl)cn1	inconclusive [inhibitor, single point]	–
Cc1sc2ncn(CC(=O)N3CCN(c4ccccc4F)CC3)c(=O)c2c1S(=O)(=O)N1CCN(c2ncccn2)CC1	–	inactive: 15.5%
COc1cc2[nH]c(=S)nc(NCCc3ccc(S(N)(=O)=O)cc3)c2cc1OC	inconclusive [inhibitor, single point]	–
Nc1nonc1C(=O)N/N=C\c1cc2c(cc1Cl)OCO2	inconclusive [inhibitor, partial curve]	–
O=C(O)CCn1c(-c2ccccn2)nc2ccccc21	inconclusive [inhibitor, partial curve]	–
Cc1oc2nc(SCC(=O)N3CCCCC3)nc(N)c2c1C	inconclusive [inhibitor, full curve, poor fit]	–
Fc1cccc(/C=N/Nc2ncnc3nc[nH]c23)c1	inconclusive [inhibitor, full curve, poor fit]	–

Compound	Potency	activity change, negative = inhibition
O=C(/C=C1\C(=O)Nc2ccccc21)/C=C1\C(=O)Nc2ccccc21	–	inactive: -11.3%
CNc1snc(C)c1C(=O)OC(C)C(=O)Nc1ccccc1 (stereo not given)	inconclusive [inhibitor, single point]	–
CCCCCn1c(NCc2ccco2)nc2ccccc21	inconclusive [inhibitor, full curve, poor fit]	–
CC1(C)CC(=O)C2=C(C1)OC(N)=C(C#N)C2c1cn(-c2ccccc2)nc1-c1ccccc1 (stereo not given)	inconclusive [inhibitor, partial curve, poor fit]	–
NC(=O)CSc1ccc(F)cc1	inconclusive [inhibitor, partial curve]	–
Cc1cc(F)ccc1NC(=O)C(C(C)C)N1Cc2ccccc2C1=O (stereo not given)	–	inactive: -4.61%
CCc1c(C(=O)NCc2ccccc2Cl)[nH]c(C)c1C(C)=O	inconclusive [inhibitor, single point]	–
CNC(=O)c1c[nH]c2ccc(S(=O)(=O)Nc3ccccc3F)cc2c1=O	inconclusive [inhibitor, single point]	–
Cc1ccc(N2C(=O)N(CC(=O)Nc3cccc([N+](=O)[O-])c3C)C(=O)C2C)cc1 (stereo not given)	inconclusive [inhibitor, partial curve, poor fit]	–
CCOc1ccc(NC(=O)N(Cc2ccc(CC)cc2)Cc2cn[nH]c2-c2ccc(OC)cc2)cc1	–	inactive: 25.1%
CC(=O)N(c1c(C)n(C)n(-c2ccccc2)c1=O)C1(C(=O)NC2CCCCC2)CCCCC1	inconclusive [inhibitor, single point]	–
CCN1CCCC1CN(Cc1cc2ccc(C)cc2[nH]c1=O)C(=S)Nc1cccc(OC)c1 (stereo not given)	inconclusive [inhibitor, partial curve, poor fit]	–
C#CCOCCOCCOCCNc1nc(N2CCN(C(=O)[C@H]([C@@H](C)O)n3cc(CCCCN)nn3)CC2)nc(N2CCN(C(=O)[C@H](CCCCN)n3cc(CCCC)nn3)CC2)n1	–	inactive: 1.71%
CCO/N=C(\C)c1c(O)c(CC)c(-c2ccccc2)n(-c2ccccc2)c1=O	inconclusive [inhibitor, partial curve, poor fit]	–
O=C(Nc1ccc(S(=O)(=O)NC2=NCCCCC2)cc1)c1ccc(C(F)(F)F)cc1	–	inactive: -6.33%
CCC(NS(=O)(=O)c1ccc(OC)cc1)C(=O)NCCc1ccccc1 (stereo not given)	–	inactive: -10.6%
Cc1ccc(NC(=O)c2cccc(OCc3c(C)noc3C)c2)cc1	–	inactive: -7.05%
COC(=O)c1ccc(NC(=O)CCn2cccn2)cc1	–	inactive: 3.17%
CC(=O)c1ccccc1NS(=O)(=O)c1c(C)nn(-c2ccccc2)c1C	inconclusive [inhibitor, partial curve]	–
Cc1ccc(S(=O)(=O)c2nc(-c3ccco3)oc2NCC2CCCO2)cc1 (stereo not given)	inconclusive [inhibitor, partial curve, poor fit]	–
COc1ccc(Oc2nc3ccccc3n(C)c2=O)cc1	inconclusive [inhibitor, full curve]	–
